Reference: the supplement of paper PMC7125110
± gives the standard error. This sample is rich in variants without activity.

B1: glmS ribozyme (parent)
chain: AUAAAAGCGCCAGAACUACAGAAAUGUAGUUGACGAGGAGGAGGUUUAUCGAAUUUUCGGCGGAUGCCUCCAAA

How the values were obtained:
Conditions in all cases: with glucosamine-6-phosphate
[1] = variants of: B1; assay: self-cleavage kobs at 40 uM GlcN6P; higher = faster cleavage; RNA array
Procedure, shortened: (§1)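 Barcoded ribozyme variants, transcribed in situ by E. coli RNA polymerase on sequenced MiSeq chips, were followed via a hybridised Cy3 probe at 37 °C. Glucosamine-6-phosphate ranged from 40 μM to 10 mM in HEPES/KCl/Mg(OAc)2 buffer. kobs came from decay fits to per-tile medians, and kcat and KM from weighted Michaelis–Menten fits.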

[2] = variants of: B1; assay: self-cleavage kobs at 640 uM GlcN6P; higher = faster cleavage; RNA array
Procedure, shortened: as §1

[3] = variants of: B1; assay: self-cleavage kobs at 10000 uM GlcN6P; higher = faster cleavage; RNA array
Procedure, shortened: as §1

[4] = variants of: B1; assay: self-cleavage kobs at 160 uM GlcN6P; higher = faster cleavage; RNA array
Procedure, shortened: as §1

[5] = variants of: B1; assay: self-cleavage kobs at 2500 uM GlcN6P; higher = faster cleavage; RNA array
Procedure, shortened: as §1

Variant	self-cleavage kobs at 40 uM GlcN6P [1]	self-cleavage kobs at 640 uM GlcN6P [2]	self-cleavage kobs at 10000 uM GlcN6P [3]	self-cleavage kobs at 160 uM GlcN6P [4]	self-cleavage kobs at 2500 uM GlcN6P [5]
G29C G43C	< 1e-05 s⁻¹	< 1e-05 s⁻¹	< 1e-05 s⁻¹		
G29C G43U C67U	< 1e-05 s⁻¹		< 1e-05 s⁻¹		
G29C G51A	< 1e-05 s⁻¹		< 1e-05 s⁻¹		
G29C G51U U55G	< 1e-05 s⁻¹		< 1e-05 s⁻¹		
G29C G62A	< 1e-05 s⁻¹	< 1e-05 s⁻¹			
G29C G63A	< 1e-05 s⁻¹		< 1e-05 s⁻¹	< 1e-05 s⁻¹	< 1e-05 s⁻¹
G29C U30G	8.92e-05 ± 1.8e-05 s⁻¹	0.00138 ± 0.00041 s⁻¹	0.00472 ± 0.00086 s⁻¹	0.000309 ± 6.9e-05 s⁻¹	0.00147 ± 0.00036 s⁻¹
G29C U31C A39U G44A C50U	< 1e-05 s⁻¹		< 1e-05 s⁻¹		< 1e-05 s⁻¹
G29C U45A U46A A52U	< 1e-05 s⁻¹	< 1e-05 s⁻¹			
G29C U46G A52C C68A	< 1e-05 s⁻¹				< 1e-05 s⁻¹
G29C U49G	< 1e-05 s⁻¹				
G29C U54G G60A	< 1e-05 s⁻¹		< 1e-05 s⁻¹		
G29C U56G C70U	6.27e-05 ± 2.2e-05 s⁻¹		0.00013 ± 3.2e-05 s⁻¹		
G29U A33G G59A G63A	< 1e-05 s⁻¹		< 1e-05 s⁻¹		
G29U A33U G35A U69A	0.000163 ± 6.6e-05 s⁻¹		6.21e-05 ± 3e-05 s⁻¹		
G29U A36G	< 1e-05 s⁻¹		< 1e-05 s⁻¹	< 1e-05 s⁻¹	
G29U A39C	2.91e-05 ± 9.8e-06 s⁻¹	0.000457 ± 5.8e-05 s⁻¹	0.00118 ± 0.00014 s⁻¹	8.26e-05 ± 1.4e-05 s⁻¹	0.000781 ± 0.0001 s⁻¹
G29U A42C G66U	< 1e-05 s⁻¹	< 1e-05 s⁻¹	< 1e-05 s⁻¹		< 1e-05 s⁻¹
G29U A42G G43A	< 1e-05 s⁻¹				
G29U A52C U56A	< 1e-05 s⁻¹	< 1e-05 s⁻¹	< 1e-05 s⁻¹	< 1e-05 s⁻¹	< 1e-05 s⁻¹
G29U A53U	8.45e-05 ± 1e-05 s⁻¹	0.00114 ± 0.00013 s⁻¹	0.00266 ± 0.00038 s⁻¹	0.000275 ± 4.9e-05 s⁻¹	0.00252 ± 0.00027 s⁻¹
G29U C34G A48G	< 1e-05 s⁻¹		< 1e-05 s⁻¹		
G29U C50G G60U C67A	9.35e-05 ± 1.9e-05 s⁻¹		0.000133 ± 3e-05 s⁻¹		
